Laboratory results as given in a collection of fitness landscapes (doi:10.1126/science.1257360).
Some of the results follow.

B1: PhoQ; a variant is named by its letters at X, in order, P23837 (parent)
chain: MKKLLRLFFPLSLRVRFLLATAAVVLVLSLAYGMVALIGYSVSFDKTTFRLLRGESNLFYTLAKWENNKLHVELPENIDKQSPTMTLIYDENGQLLWAQRDVPWLMKMIQPDWLKSNGFHEIEADVNDTSLLLSGDHSIQQQLQEVREDDDDAEMTHSVAVNVYPATSRMPKLTIVVVDTIPVELKSSYMVWSWFIYVLSANLLLVIPLLWVAAWWSLRPIEALAKEVRELEEHNRELLNPATTRELTSLVRNLNRLLKSERERYDKYRTTLTDLTHSLKTPLXXLQXXLRSLRSEKMSVSDAEPVMLEQISRISQQIGYYLHRASMRGGTLLSRELHPVAPLLDNLTSALNKVYQRKGVNISLDISPEISFVGEQNDFVEVMGNVLDNACKYCLEFVEISARQTDEHLYIVVEDDGPGIPLSKREVIFDRGQRVDTLRPGQGVGLAVAREITEQYEGKIVAGESMLGGARMEVIFGRQHSAPKDE

Variants of: B1
Experiment: enrichment ratio after two sorts for PhoP signalling (ratio (wild type AVST 3.29)); higher = more functional
Details: with PhoP (E. coli)

| Variant | enrichment ratio |
| --- | --- |
| NFKA | 0.542 |
| QNTS | ≤ 0.25 |
| TTGP | ≤ 0.25 |
| FSSP | ≤ 0.25 |
| YGYR | ≤ 0.25 |
| INHC | ≤ 0.25 |
| TNQL | 12.7 |
| RHLI | ≤ 0.25 |
| VYVL | ≤ 0.25 |
| VNDW | ≤ 0.25 |
| GGPP | ≤ 0.25 |
| RNYK | ≤ 0.25 |
| GWQM | ≤ 0.25 |
| HNSG | ≤ 0.25 |
| EHES | ≤ 0.25 |
| QGIT | ≤ 0.25 |
| VYFY | ≤ 0.25 |
| TGCQ | 13.9 |
| QAYV | 12.6 |
| HDNV | ≤ 0.25 |
| HQCW | ≤ 0.25 |

| Variant | enrichment ratio |
| --- | --- |
| SNAY | 14.8 |
| MHPN | ≤ 0.25 |
| HSDT | ≤ 0.25 |
| RSEK | ≤ 0.25 |
| HHLC | ≤ 0.25 |
| RWIS | ≤ 0.25 |
| RAKR | ≤ 0.25 |
| GPPP | ≤ 0.25 |
| WHRI | ≤ 0.25 |
| LAAN | ≤ 0.25 |
| KKIP | ≤ 0.25 |
| FPNF | ≤ 0.25 |
| ECEA | ≤ 0.25 |
| MDYI | ≤ 0.25 |
| GDDR | ≤ 0.25 |
| MCTM | 5.19 |
| NDQM | ≤ 0.25 |
| LKCV | ≤ 0.25 |
| GELA | 18.1 |
| GNGT | ≤ 0.25 |
| RDIA | ≤ 0.25 |

| Variant | enrichment ratio |
| --- | --- |
| DDFR | ≤ 0.25 |
| PSRL | ≤ 0.25 |
| QYSD | ≤ 0.25 |
| HQWA | ≤ 0.25 |
| ADYP | ≤ 0.25 |
| FRKH | ≤ 0.25 |
| PDNI | ≤ 0.25 |
| VFYN | ≤ 0.25 |
| FRRT | ≤ 0.25 |
| MKSN | ≤ 0.25 |
| TSCD | 9.13 |
| DKIK | ≤ 0.25 |
| EMAI | ≤ 0.25 |
| NWFF | ≤ 0.25 |
| HPQQ | ≤ 0.25 |
| FVHW | ≤ 0.25 |
| MSEL | ≤ 0.25 |
| NQAH | ≤ 0.25 |
| DGPT | ≤ 0.25 |
| FPDS | ≤ 0.25 |
| AQKW | ≤ 0.25 |

| Variant | enrichment ratio |
| --- | --- |
| YFAN | ≤ 0.25 |
| SQEG | ≤ 0.25 |
| SFIQ | ≤ 0.25 |
| TNNW | ≤ 0.25 |
| YHST | ≤ 0.25 |
| APCQ | ≤ 0.25 |
| RSVK | ≤ 0.25 |
| QKYF | 4.34 |
| FNDM | ≤ 0.25 |
| AIQW | ≤ 0.25 |
| HCTR | ≤ 0.25 |
| GCGF | ≤ 0.25 |
| IRHY | ≤ 0.25 |
| HSSN | ≤ 0.25 |
| WMRV | ≤ 0.25 |
| ASWV | ≤ 0.25 |
| ALIN | ≤ 0.25 |
| TMHA | ≤ 0.25 |
| HLRS | ≤ 0.25 |
| ALVM | 2.63 |
| KDNF | ≤ 0.25 |
